Measured values: the supplement of paper PMC3334620
In all, about 33,000 sequences were measured (“E-score (-0.5 to 0.5)”: median about -0.053, highest 2% from about 0.37 on). The list shows a part of the results.

Each sequence was assayed against Hap1 (UniProt P0CE41) (assay: PBM E-score (8-mer binding enrichment) (E-score (-0.5 to 0.5)); higher = stronger / more preferred TF binding; most listed sequences are background and not binding sites). Conditions: protein concentration: 200 nM; construct: GST-DNA-binding domain.
How it was run: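 Using PURExpress in vitro transcription/translation, GST-tagged yeast transcription factors were made in full-length or DNA-binding-domain form. These were applied at about 100-200 nM to double-stranded universal all-10-mer Agilent arrays, and bound protein was detected with fluorescent anti-GST. Scans were normalised with masliner before the Universal PBM Analysis Suite assigned E-scores to ungapped eight-base words pooled with their reverse complements.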

Sequence of UniProt P0CE41 (P0CE41 whole entry, the tested form may be a part): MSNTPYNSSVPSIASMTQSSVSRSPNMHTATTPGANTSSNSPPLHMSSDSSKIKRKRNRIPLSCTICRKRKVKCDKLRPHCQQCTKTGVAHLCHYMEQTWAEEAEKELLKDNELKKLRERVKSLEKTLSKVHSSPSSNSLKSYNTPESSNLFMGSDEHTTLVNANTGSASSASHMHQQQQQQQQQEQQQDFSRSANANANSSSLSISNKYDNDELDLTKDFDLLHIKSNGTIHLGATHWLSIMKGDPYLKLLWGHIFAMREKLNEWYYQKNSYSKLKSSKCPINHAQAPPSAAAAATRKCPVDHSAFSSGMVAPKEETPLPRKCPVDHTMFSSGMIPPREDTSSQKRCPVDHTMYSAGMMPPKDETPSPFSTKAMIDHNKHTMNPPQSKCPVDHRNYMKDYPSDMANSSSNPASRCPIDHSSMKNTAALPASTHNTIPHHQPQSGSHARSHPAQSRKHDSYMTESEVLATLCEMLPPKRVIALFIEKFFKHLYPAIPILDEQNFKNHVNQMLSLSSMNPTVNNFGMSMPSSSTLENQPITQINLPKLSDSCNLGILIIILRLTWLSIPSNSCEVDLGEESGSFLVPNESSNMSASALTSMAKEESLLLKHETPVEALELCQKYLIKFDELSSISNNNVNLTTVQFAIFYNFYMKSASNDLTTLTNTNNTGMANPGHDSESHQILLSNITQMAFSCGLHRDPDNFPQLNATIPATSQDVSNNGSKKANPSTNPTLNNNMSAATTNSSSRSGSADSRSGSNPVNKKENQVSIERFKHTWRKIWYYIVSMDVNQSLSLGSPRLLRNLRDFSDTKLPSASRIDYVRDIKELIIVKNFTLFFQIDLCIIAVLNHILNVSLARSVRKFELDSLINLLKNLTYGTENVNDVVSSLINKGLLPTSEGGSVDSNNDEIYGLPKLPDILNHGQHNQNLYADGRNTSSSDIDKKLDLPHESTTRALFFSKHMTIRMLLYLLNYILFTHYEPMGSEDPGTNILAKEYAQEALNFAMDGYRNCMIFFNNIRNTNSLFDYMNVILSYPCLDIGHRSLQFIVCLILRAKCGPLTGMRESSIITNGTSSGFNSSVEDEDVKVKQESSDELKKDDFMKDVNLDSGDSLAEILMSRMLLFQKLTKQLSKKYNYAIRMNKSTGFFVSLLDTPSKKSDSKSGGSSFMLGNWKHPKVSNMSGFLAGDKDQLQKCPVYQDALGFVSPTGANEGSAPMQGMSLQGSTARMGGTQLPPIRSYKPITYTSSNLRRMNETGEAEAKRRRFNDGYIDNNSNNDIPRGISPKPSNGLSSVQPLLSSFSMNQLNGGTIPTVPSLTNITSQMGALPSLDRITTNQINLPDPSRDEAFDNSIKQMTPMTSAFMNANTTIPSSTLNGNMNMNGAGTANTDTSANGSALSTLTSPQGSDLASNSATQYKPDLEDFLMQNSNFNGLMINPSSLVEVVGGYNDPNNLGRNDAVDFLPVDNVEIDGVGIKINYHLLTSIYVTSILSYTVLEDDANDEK

Sequence	PBM E-score
ATAGACAG	-0.209
CTTTCTGA	-0.423
AACTTGAA	-0.0272
AAATCACC	0.109
GCACAGGA	-0.0781
GTCAAAGA	-0.257
AATCCGCT	0.243
CCCTGCGA	-0.248
CGTCGGCA	0.202
CGTCGCAA	-0.0187
CGGCGTGA	0.256
CCTACCAA	-0.168
AGGGTGCA	-0.0662
ATGATGCC	-0.129
ATTCACGC	-0.157
GACTACGA	-0.157
GATGTACC	-0.0479
GAAGCCCA	-0.0764
AACCGGGC	0.241
CCGGTGCA	0.328
AGCTGTAA	-0.222
CCGGCAGG	0.228
CCTTTGAG	-0.235
CTCATATC	-0.0765
TATGGTCA	-0.303

Sequence	PBM E-score
CCCTTCAG	-0.263
ATCTCAGA	-0.173
CACCGATA	0.375
AGTTATGG	-0.0493
GATAGACC	0.145
ATAAAAAC	-0.00499
CACCAGGC	-0.17
TAAGTAGA	-0.115
TATAAGGA	-0.119
CACCTAAG	-0.194
ATTGAGCC	-0.0632
CATAAAGG	0.0235
CAGTTTGC	-0.00161
CCTCCTAA	-0.135
CAGTCTCC	0.0476
AAATATCG	0.303
CGCTGGGA	0.0217
ACCAAGGT	-0.104
TCTGTAAA	-0.119
ACCATCCT	-0.296
CACCCCAC	-0.026
AGTGTTGG	-0.0111
CGTTGTTA	-0.051
GAGGCGCC	-0.0241
CAACTACG	-0.035

Sequence	PBM E-score
CGAGTACG	0.0449
TAGGAAGA	-0.258
ACGGATTC	0.216
TATGCGGA	0.273
CGCACGCA	0.0332
CAGGGACA	-0.0206
GTATTTCA	-0.16
AGCTCGGA	0.325
GCTGGCCA	-0.151
CCTACTTA	-0.122
ACAGACAA	0.0859
AGACGGGC	0.0829
AAGTCTCT	-0.346
ATCTACAG	0.0431
GAGCTCAC	-0.0549
CAATGTGA	-0.124
AGGCACAG	-0.333
ATCGGTAA	0.31
AGCCTTGA	-0.257
CAGACACA	-0.183
AGTTGCTA	-0.0548
CTAGGGTC	-0.266
CACGGGCG	0.135
CGAATAAA	0.185
CGAGGCAA	0.162

Sequence	PBM E-score
TCACTCGA	-0.17
CAAACCCC	0.0854
CGTGACGC	-0.122
AATCAGCT	-0.203
AACAGCGT	-0.0733
GTCTCCTA	-0.132
CTGAGGCC	0.075
TGCTAGAA	-0.118
ACAAAGAA	-0.101
GAATAAGC	-0.0976
GATCGGAA	0.325
ATTAACTG	-0.0615
GATAATGC	0.0031
GTGGGTCA	-0.2
AAGGCAGT	-0.255
AAGGCATA	-0.198
AAGCCGTA	0.0164
GAATAGAA	0.0298
AGACCGAA	0.281
CTGCTAAG	-0.146
ACGCATGG	0.00125
GATATCGC	0.304
ACGTACGG	0.126
GCACACGA	-0.168
CGAGGGCA	-0.00305

Sequence	PBM E-score
ATCGCTAA	0.00029
ACTTACCG	0.305
CACCTGTA	-0.173
GGAGGCAC	-0.0675
ATACAAAG	-0.00814
ACACAACG	0.0891
AACTCGCC	-0.0217
ACTAGACC	0.0797
AATCATTC	-0.0493
ATCGGTGC	0.258
CTGCATTC	-0.0182
CAACACAC	-0.196
AAGTCGTC	-0.0478
GACAGAGC	-0.162
AACTGGGA	-0.061
GCTACCCA	-0.146
AAAAAGGG	-0.0854
AGGGAAAA	-0.127
AGAGGGTC	-0.25
AGTGTAGA	-0.389
TACCCCTA	-0.146
TAGATCTA	-0.0902
ATATCAAA	0.039
AGCCGTTC	-0.0405
CGCAAGCG	-0.188

Sequence	PBM E-score
GGTCGGAC	0.342
CCTCAGGA	-0.106
AAAACCCA	0.0982
GCTCGCAA	-0.143
ACTGGGTG	-0.124
ACTCTTTC	-0.154
ATCTAGAA	-0.142
CCTTCTGA	-0.147
ACTCGATG	-0.129
CAGGCCTG	-0.0909
CGCAGGGA	-0.0967
ATAAGCCC	0.195
GGATACGA	-0.0114
ATGATAAA	0.0373
ATATACGG	0.184
CCCCAAAA	-0.133
CATCTAGG	-0.185
CCTAATAA	-0.0541
CTTCGTAA	-0.226
GGGTTCCA	0.135
ACTGCAGG	-0.33
GAGCCCTC	-0.0963
GTGCTATA	-0.195
CTTCAAGC	-0.221
CAGAGTTA	-0.21

Sequence	PBM E-score
CGACCGTA	0.0335
ACGATTGA	-0.0308
CCACCCGA	0.259
ATAGGAAC	-0.246
CCGGCCCG	0.434
GGTATACA	-0.0452
AAACAGAG	-0.247
ATACCTTG	-0.105
AGGCATAT	-0.181
CATTTGCG	0.105
AGTGCGAA	-0.0821
CTAGCCAA	-0.144
AATACTCT	-0.201
ATCCCTCA	0.0132
TACGTTAA	-0.125
AGAATCTC	-0.0657
CGTACCCA	-0.125
GCTCATTA	-0.0231
ATTACGGC	0.101
GTTGGAAA	-0.0251
ATAATTTA	-0.0658
ACGTCCAG	-0.113
